Reference: the supplement of paper PMC6089552
Hit rate of the full screen: of about 3,200 compounds, about 300 (9.4%) showed activity. This is a selection; strong and weak results do not stand in their true shares.

System: A673/TR/shEF
Test: cell viability (LOESS-normalised, relative to median of negative controls) (log2 ratio); higher = more viable cells (less compound effect), active = hit call of the paper (over 3 MAD below the median)
Settings: treatment time: 72 h
Outline: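 A673/TR/shEF Ewing sarcoma cells (1,500 per well, 384-well plates) were grown with or without doxycycline to induce EWS-FLI1 shRNA knockdown, starting 24 h before compounds. Library compounds at two or more concentrations, with DMSO controls, were added for three days. Cell viability was read by CellTiter-Glo luminescence on an Envision reader, then LOESS-corrected per plate, divided by the median of negative controls and log2-transformed. Hits were wells at least three median absolute deviations from the median of all screened wells.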

[1] = 0.103 µM, library screen: screen3, EWS-FLI1 expression: high (no doxycycline)
[2] = 0.103 µM, library screen: screen3, EWS-FLI1 expression: low (doxycycline-induced shRNA knockdown)
[3] = 0.308 µM, library screen: screen3, EWS-FLI1 expression: high (no doxycycline)
[4] = 0.308 µM, library screen: screen3, EWS-FLI1 expression: low (doxycycline-induced shRNA knockdown)
[5] = 0.926 µM, library screen: screen3, EWS-FLI1 expression: high (no doxycycline)
[6] = 0.926 µM, library screen: screen3, EWS-FLI1 expression: low (doxycycline-induced shRNA knockdown)
[7] = 2.8 µM, library screen: screen3, EWS-FLI1 expression: high (no doxycycline)
[8] = 2.8 µM, library screen: screen3, EWS-FLI1 expression: low (doxycycline-induced shRNA knockdown)
[9] = 8.3 µM, library screen: screen3, EWS-FLI1 expression: high (no doxycycline)
[10] = 8.3 µM, library screen: screen3, EWS-FLI1 expression: low (doxycycline-induced shRNA knockdown)
[11] = 25 µM, library screen: screen3, EWS-FLI1 expression: high (no doxycycline)
[12] = 25 µM, library screen: screen3, EWS-FLI1 expression: low (doxycycline-induced shRNA knockdown)
[13] = 0.25 µM, library screen: screen2, EWS-FLI1 expression: high (no doxycycline)
[14] = 0.25 µM, library screen: screen2, EWS-FLI1 expression: low (doxycycline-induced shRNA knockdown)
[15] = 2.5 µM, library screen: screen2, EWS-FLI1 expression: high (no doxycycline)
[16] = 2.5 µM, library screen: screen2, EWS-FLI1 expression: low (doxycycline-induced shRNA knockdown)
[17] = 0.25 µM, library screen: screen1, EWS-FLI1 expression: high (no doxycycline)
[18] = 0.25 µM, library screen: screen1, EWS-FLI1 expression: low (doxycycline-induced shRNA knockdown)
[19] = 2.5 µM, library screen: screen1, EWS-FLI1 expression: high (no doxycycline)
[20] = 2.5 µM, library screen: screen1, EWS-FLI1 expression: low (doxycycline-induced shRNA knockdown)

Measured: cell viability (log2)

Cc1cccc(-c2[nH]c(C(C)(C)C)nc2-c2ccc3nccnc3c2)n1
inactive: [1] -0.0325 | [2] -0.0179 | [3] -0.00285 | [4] -0.00639 | [5] -0.0155 | [6] -0.0838 | [7] -0.0686 | [8] -0.0559 | [9] -0.0715 | [10] 0.000661 | [11] -0.0631 | [12] -0.000225

CCCCCCCCC#CCC#CCC#CCCCC(=O)O
inactive: [13] 0.185 | [14] 0.0923 | [15] 0.146 | [16] 0.00889

C[C@@H](c1ncncc1F)[C@](O)(Cn1cncn1)c1ccc(F)cc1F
inactive: [1] 0.083 | [2] 0.08 | [3] 0.0719 | [4] 0.0723 | [5] 0.0957 | [6] 0.0983 | [7] -0.0499 | [8] 0.0827 | [9] 0.0539 | [10] 0.0587 | [11] 0.12 | [12] 0.0979

O=c1cc(-c2cc(O)c(O)c(O)c2)oc2cc(O)cc(O)c12
inactive: [17] 0.0803 | [18] -0.0396 | [19] 0.109 | [20] 0.0724

O=C(O)Cc1ccccc1Nc1c(Cl)cccc1Cl
inactive: [1] 0.0847 | [2] -0.0311 | [17] 0.142 | [18] -0.0101 | [13] 0.241 | [14] 0.103 | [3] 0.0924 | [4] 0.103 | [5] 0.163 | [6] 0.0701 | [19] 0.178 | [20] 0.16 | [15] 0.2 | [16] 0.14 | [7] 0.0415 | [8] 0.0673 | [9] 0.045 | [10] 0.106 | [11] 0.0712 | [12] 0.146

C[C@@H]1O[C@@H](Oc2c(-c3ccc(O)c(O)c3)oc3cc(O)cc(O)c3c2=O)[C@H](O)[C@H](O)[C@H]1O
inactive: [17] 0.18 | [18] 0.0918 | [19] 0.201 | [20] 0.0421

N=c1ccn2c(n1)O[C@H]1[C@H](O)[C@@H](CO)O[C@H]12
inactive: [18] 0.0178 | [14] 0.0732 | [16] 0.0215
active: [17] -0.254 | [13] -0.122 | [19] -1.03 | [20] -0.19 | [15] -0.641

CC(=O)Oc1c(C)cccc1C(=O)O
inactive: [17] 0.0927 | [18] 0.104 | [19] 0.174 | [20] 0.0697

C[C@]12C=CC(=O)C=C1CC[C@@H]1[C@@H]2[C@@H](O)C[C@@]2(C)[C@H]1CC[C@]2(O)C(=O)CO
inactive: [1] 0.064 | [2] 0.0887 | [17] 0.0651 | [18] 0.0697 | [3] 0.104 | [4] 0.082 | [5] 0.0205 | [6] 0.129 | [19] 0.153 | [20] 0.0868 | [7] 0.0436 | [8] 0.149 | [9] 0.0419 | [10] 0.0583 | [11] -0.00834 | [12] 0.116
